This is one part of the list. Sequences were assembled here from the parent chain. Inactive controls read about 0.05.
B1: TEV protease; numbered along this chain (parent)
chain: MGESLFKGPRDYNPISSSICHLTNESDGHTTSLYGIGFGPFIITNKHLFRRNNGTLVVQSLHGVFKVKDTTTLQQHLVDGRDMIIIRMPKDFPPFPQKLKFREPQREERICLVTTNFQTKSMSSMVSDTSCTFPSGDGIFWKHWIQTKDGQCGSPLVSTRDGFIVGIHSASNFTNTNNYFTSVPKNFMELLTNQEAQQWVSGWRLNADSVLWGGHKVFMVKPEEPFQPVKEATQL

Variants of: B1
Experiment: raw area under fraction-flipped curve 0-4 h after induction (AUC4h, not background-subtracted), DNA-recorder readout of cleavage of the substrate (dimensionless); higher = more cleavage of the substrate by the protease variant
Conditions: temperature: 34 °C; time window: 0-4 h after rhamnose induction
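Further: Bxb1 expression induced with 0.2% (w/v) L-rhamnose at OD600 near 0.5, cultures sampled hourly, flipped fraction per protease–substrate barcode pair counted by paired-end Illumina sequencing.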

Row | Variant | area with substrate ENLYDQS | area with substrate ENLYEQS | area with substrate ENLYGQS | area with substrate ENLYHQS | area with substrate ENLYKQS | area with substrate ENLYMQS | area with substrate ENLYNQS | area with substrate ENLYPQS | area with substrate ENLYQQS | area with substrate ENLYSQS | area with substrate ENLYVQS | area with substrate ENLYTQS | area with substrate ENLYWQS | area with substrate ENLYRQS | area with substrate ENLYYQS | area with substrate ENLYIQS | area with substrate ENLYLQS
1 | R81I | 0.0442 | 0.0475 | 0.0574 | 0.0647 | 0.0369 | 0.0991 | 0.058 | 0.0716 | 0.0612 | 0.0424 | 0.0609 | – | – | – | – | – | –
2 | I85F | 0.0701 | 0.0513 | – | 0.0525 | 0.0585 | – | – | – | 0.057 | – | 0.107 | 0.06 | 0.0778 | – | – | – | –
3 | I86F | 0.0611 | – | 0.0641 | 0.065 | 0.0704 | 0.0734 | 0.0477 | 0.0841 | 0.0506 | 0.0614 | 0.115 | – | 0.0711 | 0.0671 | – | – | –
4 | I86R | 0.0519 | 0.0259 | 0.0366 | 0.0343 | 0.0162 | 0.0433 | 0.0396 | 0.0396 | 0.0426 | 0.037 | – | – | – | 0.0255 | 0.0486 | – | –
5 | K90F | 0.0581 | 0.0666 | – | 0.0728 | – | – | 0.0589 | – | – | – | – | – | – | 0.0587 | – | 0.132 | –
6 | F95S | 0.062 | 0.0593 | 0.0806 | 0.0592 | 0.0396 | 0.0749 | 0.0622 | 0.0695 | – | – | 0.0701 | 0.0815 | 0.0763 | – | 0.0514 | 0.106 | –
7 | L99C | 0.0637 | 0.0709 | – | – | 0.0636 | 0.0907 | 0.0695 | 0.0702 | – | 0.0594 | 0.0753 | 0.0758 | – | 0.0611 | – | 0.102 | –
8 | L99S | 0.031 | 0.0681 | – | 0.069 | 0.0665 | – | 0.0529 | 0.0723 | – | 0.0784 | – | 0.0619 | – | 0.047 | 0.0608 | – | –
9 | E103K | 0.0646 | 0.0617 | 0.066 | 0.0455 | – | 0.0828 | – | 0.0702 | – | 0.0729 | 0.127 | – | – | 0.0732 | 0.0498 | – | –
10 | Q105T | 0.0511 | 0.0593 | 0.064 | 0.0706 | 0.0642 | 0.0822 | 0.077 | 0.0756 | 0.0764 | 0.0648 | 0.14 | 0.0853 | 0.0673 | 0.0759 | – | – | 0.0681
11 | E108P | 0.0552 | 0.0584 | 0.0541 | 0.0404 | 0.0579 | – | 0.0465 | – | – | 0.0533 | – | 0.0545 | 0.0507 | – | – | 0.0613 | –
12 | E108Y | 0.0574 | 0.0517 | – | 0.0587 | 0.0552 | 0.0549 | 0.055 | – | 0.0703 | 0.0483 | 0.0737 | 0.0372 | 0.0551 | 0.0548 | – | 0.0629 | –
13 | I110H | 0.0517 | 0.0598 | 0.0549 | – | 0.0489 | 0.0519 | 0.0621 | 0.052 | 0.0376 | 0.0642 | 0.0407 | – | 0.053 | – | – | 0.0507 | –
14 | T114M | 0.0759 | 0.08 | 0.0548 | 0.0604 | 0.0483 | – | 0.0568 | 0.07 | 0.08 | 0.0792 | 0.103 | – | 0.0783 | – | – | 0.118 | –
15 | Q118A | 0.064 | 0.0699 | 0.107 | 0.0701 | – | 0.0716 | 0.0674 | 0.07 | 0.0639 | 0.0812 | 0.132 | – | 0.0855 | 0.05 | 0.0612 | 0.139 | 0.0813
16 | Q118F | 0.0586 | 0.0903 | – | 0.0439 | 0.0476 | 0.0917 | 0.0635 | – | 0.0577 | 0.078 | 0.124 | 0.0821 | – | 0.057 | 0.06 | – | –
17 | S121Y | 0.0623 | 0.0718 | 0.069 | 0.0788 | 0.0495 | 0.0781 | – | – | 0.0509 | – | 0.125 | – | 0.0753 | – | – | 0.101 | 0.0822
18 | V126G | 0.0703 | 0.134 | 0.0738 | 0.0785 | – | 0.0877 | 0.0381 | 0.0688 | 0.0488 | 0.0753 | 0.146 | 0.0811 | 0.0998 | 0.0476 | – | – | –
19 | T129P | 0.0632 | 0.0963 | 0.0623 | 0.0751 | 0.0554 | 0.0778 | 0.08 | 0.0841 | 0.0407 | 0.0695 | – | – | 0.0765 | 0.0644 | – | 0.131 | 0.0837
20 | T132G | 0.0446 | 0.0679 | 0.0528 | 0.051 | 0.0603 | 0.0847 | 0.0636 | 0.0622 | – | 0.0596 | – | – | – | 0.0731 | 0.0646 | 0.0854 | –
21 | T132S | 0.0647 | – | 0.0415 | – | – | – | 0.0637 | 0.0744 | – | – | – | – | – | – | – | – | 0.0692
22 | P134E | 0.0923 | 0.0597 | 0.0578 | 0.0647 | 0.0609 | 0.0896 | 0.05 | 0.0832 | 0.0743 | 0.0757 | 0.113 | 0.0659 | 0.0759 | 0.0567 | – | 0.115 | –
23 | P134L | 0.0489 | 0.0646 | – | 0.0657 | – | 0.066 | – | 0.0572 | – | – | – | 0.0651 | 0.0653 | – | 0.0653 | 0.0945 | –
24 | S135D | 0.0715 | 0.102 | – | 0.0582 | – | – | – | 0.0621 | 0.0643 | 0.0691 | – | – | 0.0729 | 0.0572 | 0.0676 | – | 0.0714
25 | G136P | 0.0616 | 0.0612 | – | 0.0646 | – | 0.0689 | 0.0629 | – | 0.0515 | 0.0636 | 0.0753 | – | – | 0.0521 | 0.0713 | 0.0703 | –
26 | F140I | 0.0571 | 0.0596 | 0.0739 | 0.0473 | 0.0331 | 0.0569 | 0.0593 | 0.0636 | 0.0707 | 0.0588 | 0.115 | 0.056 | 0.0543 | 0.0588 | – | 0.0803 | –
27 | F140P | 0.0582 | 0.0543 | 0.0548 | 0.0061 | 0.047 | – | 0.0522 | 0.0606 | – | 0.055 | 0.0615 | – | 0.0453 | 0.0464 | 0.069 | 0.091 | –
28 | W144Q | 0.0513 | 0.0728 | – | 0.237 | 0.0581 | – | – | – | – | 0.0545 | 0.0869 | 0.0645 | 0.0686 | – | 0.0636 | 0.0764 | –
29 | W144T | 0.0621 | 0.0596 | 0.0736 | – | – | – | 0.0697 | – | – | 0.0744 | 0.0833 | 0.0854 | – | – | 0.0729 | – | –
30 | K148T | 0.0564 | 0.0652 | 0.0681 | 0.0638 | 0.0494 | 0.0703 | 0.067 | 0.0605 | 0.0606 | – | 0.0887 | – | 0.0663 | 0.067 | – | 0.0986 | 0.0766

Reference: the supplement of paper PMC12217912
